Measured values as given in PubChem BioAssay AID1745853 (National Center for Advancing Translational Sciences (NCATS), 2022).
Where “and” joins values, the source holds several entries; their conditions need not be identical. Equal values may be shown once. This is one part of the list. The main result of the screen is listed elsewhere. These columns were measured beside it and carry no call.

Columns and labels:
Experiment in all cases: Primary Screen for Target Class Profiling of Small Molecule Inhibitors of Methyltransferases
[1] = target: Glycine N-methyltransferase (Homo sapiens) (UniProt Q14749); settings: purified enzyme, MTase-Glo SAH luminescence; measured here: GNMT inhibition; at 40 µM; stronger effect = lower value
Outline: (§1)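 Each enzyme was reacted with SAM and its substrate, with compounds tested once at 40 uM; SAH formed was read by MTase-Glo luminescence.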

[2] = target: Guanidinoacetate N-methyltransferase (Homo sapiens) (UniProt Q14353); settings: purified enzyme, MTase-Glo SAH luminescence; measured here: GAMT inhibition; at 40 µM; stronger effect = lower value
Outline: as §1

[3] = target: Histamine N-methyltransferase (Homo sapiens) (UniProt P50135); settings: purified enzyme, MTase-Glo SAH luminescence; measured here: HNMT inhibition; at 40 µM; stronger effect = lower value
Outline: as §1

[4] = target: Nicotinamide N-methyltransferase (Homo sapiens) (UniProt P40261); settings: purified enzyme, MTase-Glo SAH luminescence; measured here: NNMT inhibition; at 40 µM; stronger effect = lower value
Outline: as §1

[5] = target: Phenylethanolamine N-methyltransferase (Homo sapiens) (UniProt P11086); settings: purified enzyme, MTase-Glo SAH luminescence; measured here: PNMT inhibition; at 40 µM; stronger effect = lower value
Outline: as §1
On the % scale 0 is the no-effect control and ±100 the full control effect.

Structure (SMILES) | activity change, negative = inhibition [1] | activity change, negative = inhibition [2] [%] | activity change, negative = inhibition [3] | activity change, negative = inhibition [4] | activity change, negative = inhibition [5]
Cc1ccc(S(=O)(=O)c2nnn3c2nc(N2CCN(C)CC2)c2cc(Cl)ccc23)cc1C | -19% | -2.35 | -8.34% | -12.9% | -7.95%
CC(=O)N[C@@H]1CN(S(=O)(=O)N2CCOCC2)C[C@H]1c1ccc(C)o1 | -4.8% | -2.25 | -0.922% | -0.285% | -0.019%
COCCn1ncc(N2CCCC(CC(=O)O)C2)cc1=O (stereo not given) | 2.51% | 4.93 | 3.99% | -0.696% | 15.1%
CCCCNC(=O)c1cc2n(n1)CC(C)(C(=O)NCc1ccc(C)cc1)N(C)C2=O (stereo not given) | 8.69% | 1.61 | 10.1% | 7.96% | 7.28%
Cn1cc(Nc2cnccc2C(=O)O)c2cccnc21 | 5.27% | 7.58 | 8.28% | -5.71% | 2.15%
C[C@]1(O)CCN(C(=O)c2cc(-c3ccsc3)n[nH]2)C[C@@H]1O | -5.69% | -3.11 | -0.486% | -6.86% | -1.48%
CNC(=O)c1ccc2cc([C@@]3(O)CCn4cncc43)ccc2c1 | 3.24% | 9.09 | 10.5% | -7.02% | 5.75%
Cc1ccccc1CCN1C(=O)c2ccc(-c3ccco3)n2CC1(C)C(=O)NC1CCCCCC1 (stereo not given) | -4.58% | 4.8 | -0.419% | -4.71% | -0.249%
Cc1ccc(C)c(N2CCN(C(=O)c3cc4n(n3)CC(C)(C(=O)NC3CCCC3)N(C)C4=O)CC2)c1 (stereo not given) | 7.64% | 0.262 | 4.4% | 11.1% | 7.01%
O=C(c1ccc2c(=O)nc3c(-c4ccccc4)n[nH]n3c2c1)N1CCN(c2ccc(F)cc2)CC1 | -2.33% | 0 | 2.88% | 6.02% | 1.14%
Cc1ccnn1-c1ccc(C(=O)N2CCN(S(=O)(=O)c3ccc(Cl)c(C(F)(F)F)c3)CC2)cc1 | 2.69% | -12.1 | 0.25% | -24.8% | -11%
COc1cccc(-c2cccc(C(=O)N3CCN(C(C)=O)CC3)c2)c1 | -3.04% | 0.427 | 1.54% | -0.825% | -14.7%
CC(C)CCn1c(=O)c2ccccc2n2c(=O)n(CC(=O)NCc3ccccc3Cl)nc12 | -8.56% | -2.75 | -2.46% | -15.2% | -5.84%
N#Cc1cc(-c2ccnc(Nc3ccc(N4CCOCC4)cc3)n2)ccc1OC1CCOCC1 | -15.4% | 0.862 | -2.5% | -16.1% | -3.87%
CC(C)(O)C1CCC(C)(C2CCC3(C)C4CCC5C(C)(C(=O)OC6OC(CO)C(O)C(O)C6O)C(O)CC(O)C56CC46CCC23C)O1 (stereo not given) | 0.108% | -8.29 | 4.46% | -18% | -1.59%
CC(=O)N1C[C@@H](CN(C)C)[C@H](NC(=O)Cc2ccc(OC(F)(F)F)cc2)C1 | -6% | -0.482 | 0.693% | -4.79% | 3.14%
O=C(CCCc1ccccc1)Nc1ccnn1C1CCN(C(=O)CCc2cnccn2)CC1 | -4.18% | -5.21 | -0.988% | -10.3% | -4.59%
CCCn1c(=O)c2ccc(C(=O)NC3CCCC3)cc2n2c(SCC(=O)c3ccc(OC)cc3)nnc12 | 8.67% | 0 | 4.36% | 3.16% | 7.81%
CC(C)OCCCn1c(=O)c2ccccc2n2c(SCc3ccc(F)cc3)nnc12 | -6.24% | 6.35 | 4% | -8.03% | -0.079%
Cc1cccc(NC(=O)c2ncn3c2C(=O)N(C2CC2)C(C)(C(=O)NC2CCCC2)C3)c1C (stereo not given) | -5.96% | 0 | -0.972% | -4.31% | -4.81%
CN(C)CCCNC(=O)c1ccc(-c2cc(O)c3ncccc3c2)cc1 | -13.3% and -31.5% | 4.87 | 11.1% and -17.4% | 0.812% and -7.28% | 4.29% and -0.552%
CCOCCCN1C(=O)c2cc(-c3ccccc3)nn2CC1(C)C(=O)NCc1ccccc1OC (stereo not given) | 7.21% | 0.848 | 10.6% | 10% | 5.59%
COc1cccc(OC)c1-c1ccc(C[C@H](NC(=O)c2c(Cl)cccc2Cl)C(=O)O)cc1 | 2.69% | -1.26 | 11.6% | -8.06% | 7.73%
CCCn1c(=O)c2ccc(C(=O)NC3CCCCC3)cc2n2c(=O)n(Cc3ccc(F)cc3Cl)nc12 | -0.846% | 1.02 | -4.08% | -5.42% | 0.331%
COC(=O)c1ncn2c1C(=O)N(c1ccc(C)c(C)c1)C(C)(C(=O)NCc1ccccc1)C2 (stereo not given) | -9.41% | 1.88 | -6.93% | 0.345% | -1.22%
CCC(C)NC(=O)c1ccc2c(=O)n(C)c3nn(CC(=O)Nc4ccccc4Cl)c(=O)n3c2c1 (stereo not given) | 1.16% | 0.049 | 1.69% | 1.43% | 1.79%
COc1ccc(CN2C(=O)c3cc4sccc4n3CC2(C)C(=O)NC2CCCCC2C)cc1 (stereo not given) | -1.7% | 6.92 | -0.247% | -2.93% | -2.47%
Fc1ccc2nc(CO[C@H]3CN(C4CCOCC4)C[C@H]3F)[nH]c2c1 | -6.86% | -3.36 | -3.42% | -7.25% | -8.59%
CCCn1c(=O)c2ccc(C(=O)NC(C)CC)cc2n2c(=O)n(CC(=O)Nc3ccc(C)c(C)c3)nc12 (stereo not given) | 0.557% | 3.02 | 0.101% | -4.36% | -4.44%
CC1OC(OC2C(C)OC(OC3C(OC(=O)/C=C/c4ccc(O)cc4)C(CO)OC(OC4(COC(=O)/C=C/c5ccc(O)cc5)OC(CO)C(O)C4O)C3OC3OCC(O)(CO)C3O)C(O)C2O)C(O)C(O)C1O (stereo not given) | 0.111% | -0.253 | 6.99% | -11.9% | -3.3%
